Results from PubChem BioAssay AID1347165 (National Center for Advancing Translational Sciences (NCATS), 2019).
In all, about 220,000 compounds went through this assay and about 5,700 (2.6%) were called active. This list was built around the results that the source calls inconclusive (neither active nor inactive); the mix of calls is not that of the screen. Calls follow the shape of the dose curve; as a rule, active = well fitted inhibition curve with a large enough effect; inconclusive = small, poorly fitted or top-dose-only effect; inactive = no such curve, though single readings can be large or run the other way. A potency beside an inconclusive call is a rough fit, not a confirmed value.

The molecules below were run against Lysine-specific demethylase 5B (Homo sapiens) (UniProt Q9UGL1) (assay: Primary screen for KDM5B Histone Demethylases FDH-coupled qHTS). Conditions: FDH-coupled NADH fluorescence (FDH is formaldehyde dehydrogenase); activity change, negative = inhibition: at 57.7 µM (top of the series) unless noted.
Chain of UniProt Q9UGL1 (Q9UGL1 whole entry, looked up): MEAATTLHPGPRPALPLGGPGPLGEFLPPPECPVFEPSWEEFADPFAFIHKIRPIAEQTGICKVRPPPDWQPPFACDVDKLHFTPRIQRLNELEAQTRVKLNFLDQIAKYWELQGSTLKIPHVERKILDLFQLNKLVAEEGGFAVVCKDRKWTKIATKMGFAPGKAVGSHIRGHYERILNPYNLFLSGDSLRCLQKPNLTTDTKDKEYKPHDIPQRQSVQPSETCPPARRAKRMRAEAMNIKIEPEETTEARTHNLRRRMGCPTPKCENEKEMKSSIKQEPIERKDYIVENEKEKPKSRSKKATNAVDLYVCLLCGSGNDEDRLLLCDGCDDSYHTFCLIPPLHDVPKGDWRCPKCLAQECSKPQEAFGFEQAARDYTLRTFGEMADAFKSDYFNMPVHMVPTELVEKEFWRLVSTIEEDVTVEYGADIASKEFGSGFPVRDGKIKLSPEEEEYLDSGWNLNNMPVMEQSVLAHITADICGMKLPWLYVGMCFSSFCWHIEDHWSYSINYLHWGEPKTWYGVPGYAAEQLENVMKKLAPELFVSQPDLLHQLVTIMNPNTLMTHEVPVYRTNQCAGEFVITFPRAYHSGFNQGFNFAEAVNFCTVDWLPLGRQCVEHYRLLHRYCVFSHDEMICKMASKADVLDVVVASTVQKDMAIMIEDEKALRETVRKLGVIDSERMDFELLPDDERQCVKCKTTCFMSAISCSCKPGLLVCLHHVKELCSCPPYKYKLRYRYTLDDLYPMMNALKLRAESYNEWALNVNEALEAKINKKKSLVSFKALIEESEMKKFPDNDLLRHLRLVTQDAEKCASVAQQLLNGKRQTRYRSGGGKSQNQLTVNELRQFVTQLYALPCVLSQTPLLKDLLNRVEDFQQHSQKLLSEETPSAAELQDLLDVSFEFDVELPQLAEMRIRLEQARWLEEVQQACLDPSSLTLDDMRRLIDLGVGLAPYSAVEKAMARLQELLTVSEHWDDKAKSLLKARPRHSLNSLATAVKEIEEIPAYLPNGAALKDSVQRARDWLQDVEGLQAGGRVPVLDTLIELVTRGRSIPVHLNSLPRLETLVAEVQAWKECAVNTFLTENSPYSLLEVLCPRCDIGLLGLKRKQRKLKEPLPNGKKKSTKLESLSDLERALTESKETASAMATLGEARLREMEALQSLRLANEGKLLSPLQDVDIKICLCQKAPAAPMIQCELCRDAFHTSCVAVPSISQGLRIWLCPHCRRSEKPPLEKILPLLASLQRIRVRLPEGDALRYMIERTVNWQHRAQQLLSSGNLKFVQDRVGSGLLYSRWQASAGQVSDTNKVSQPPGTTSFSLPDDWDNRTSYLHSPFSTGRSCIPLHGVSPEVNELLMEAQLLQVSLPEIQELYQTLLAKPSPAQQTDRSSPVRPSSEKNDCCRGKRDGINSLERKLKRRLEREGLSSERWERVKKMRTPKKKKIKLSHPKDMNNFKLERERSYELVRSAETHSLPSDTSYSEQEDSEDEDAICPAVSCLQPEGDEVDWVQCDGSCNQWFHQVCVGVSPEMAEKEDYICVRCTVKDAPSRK
In short: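 qHTS format, multiple compound concentrations. Buffer 50 mM HEPES pH 7.5/0.01% Tween-20; 200 nM KDM5BΔAP final; 10 min compound preincubation; substrate-mix levels 12.5 µM peptide, 25 µM α-KG, 0.25 mM NAD⁺; 30 min RT; ΔRFU.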
Also: nearly all actives have a fitted effect of over 70% in size.
For activity change, negative = inhibition in this document: 0% is about no effect.
Potency is read from the fitted curve at half-maximal effect; tags tell the direction and shape of the fitted curve.

SMILES | Potency | activity change, negative = inhibition
CC(C)c1ccc(NC(=O)c2ccc3c(c2)N(C)C2CCCN2C3=O)cc1 (configuration not stated) | inconclusive: 25.1 µM [inhibitor, partial curve, poor fit] | 
O=C(NC1CCN(c2cc(C(F)(F)F)ncn2)CC1)c1ccco1 | inconclusive: 6.31 µM [inhibitor, single point] | 
O=c1[nH]cccc1-c1nc2ccccc2n1Cc1cccc(F)c1 | inconclusive: 25.1 µM [inhibitor, partial curve, poor fit] | 
CN(C)C(=O)Cc1c[nH]c2ncc(-c3cnn(C)c3)cc12 | active: 39.8 µM | 
Cc1cc(C)cc(NC(=O)c2ccc3c(c2)nnn3C2CCCC2)c1 | inconclusive: 17.8 µM [inhibitor, partial curve, poor fit] | 
Cc1ccc(-c2cc3n(c2)CCc2ccccc2-3)cc1 | inconclusive: 35.5 µM [inhibitor, partial curve, poor fit] | 
CN1C[C@H]2CN(Cc3cn(C)c4ccccc34)CCN2C1=O | inconclusive: 56.2 µM [inhibitor, single point] | 
CCCCn1c(=O)c2oc3ccccc3c2n(Cc2cccc(F)c2)c1=O | inconclusive: 14.1 µM [inhibitor, partial curve, poor fit] | 
Cc1nc(N2CCC(C(=O)NC3CCCCCC3)CC2)cc(C(F)(F)F)n1 | inconclusive: 35.5 µM [inhibitor, single point] | 
C(=C\c1ccccc1)/CN1CCN(Cc2cc3n(n2)CCCNC3)CC1 | inconclusive: 8.91 µM [inhibitor, partial curve, poor fit] | 
CN1Cc2nc(NCCOc3ccccc3)ccc2OCC1=O | inconclusive: 39.8 µM [inhibitor, partial curve, poor fit] | 
Cc1ccc(CNC(=O)[C@H]2CCC[C@@H](O)C2)c2cccnc12 | inconclusive: 11.2 µM [inhibitor, partial curve] | 
O=c1c2nc(-c3ccc4c(c3)OCO4)ccc2ncn1-c1ccc(F)cc1F | inconclusive: 56.2 µM [inhibitor, single point] | 
CCC(C)Cn1c(/C=C/c2ccccc2)nc2ccccc21 (configuration not stated) | inconclusive: 35.5 µM [inhibitor, partial curve, poor fit] | 
COCCCNC(=O)c1cc(Nc2ccc(C)c(C)c2)nc2ccccc12 |  | inactive: 222%
O=C1OC[C@@H]2CCN(Cc3ccccc3Cl)Cc3ccc(F)cc3N12 |  | inactive: 16.6% [at 86.2 µM]
COc1ccc(-c2nccc3c(=O)cc(N4CCOCC4)oc23)cn1 | active: 35.5 µM | 
O=C(CSc1oc(-c2ccco2)nc1S(=O)(=O)c1ccc(Br)cc1)c1ccccc1 | inconclusive: 28.2 µM [inhibitor, partial curve, poor fit] | 
CCS(=O)(=O)c1ccc(O)c(Nc2cc(C)nc(SC)n2)c1 | inconclusive: 4.47 µM [inhibitor, full curve, poor fit] | 
O=C(Cn1c2ncccc2c(=O)n1-c1ccccc1)NCc1ccccc1Cl | inconclusive: 3.55 µM [inhibitor, partial curve, poor fit] | 
CN1CCN(c2cc(N3CC[C@H](CO)[C@H](O)C3)nc(N)n2)CC1 |  | inactive: -7.61%
COc1ccc(CNS(=O)(=O)c2cc3c4c(c2)CCN4C(=O)CC3)cc1 |  | inconclusive: -34.3% [inhibitor]
O=C(CSc1nc2c([nH]c3ccccc32)c(=O)n1-c1cccc(Cl)c1)NCC1CCCO1 (configuration not stated) | inconclusive: 11.2 µM [inhibitor, partial curve, poor fit] | 

SMILES | Potency | activity change, negative = inhibition
COC(=O)C1=C(N)N(c2ccc(Cl)cc2)C2=C(C(=O)CCC2)C1c1ccc(OC)cc1 (configuration not stated) | inconclusive: 39.8 µM [inhibitor, single point] | 
COc1ccc(N2C(=O)C3(CCCCC3)C2C(=O)NCCCN2CCCCC2)cc1 (configuration not stated) |  | inactive: 11.3%
O=C(Cc1c[nH]c2ncc(-c3ccc(Cl)cc3)cc12)NCc1cccnc1 | inconclusive: 35.5 µM [inhibitor, partial curve, poor fit] | 
CCn1nc(C(=O)Nc2cccc(S(=O)(=O)N3CCCCC3)c2)c2ccccc2c1=O |  | inactive: -11.2%
Cc1noc(C)c1COc1cccc(C(=O)Nc2ccc(S(=O)(=O)NCc3ccco3)cc2)c1 | inconclusive: 39.8 µM [inhibitor, single point] | 
Cc1ccc(Sc2csc(-c3ccccc3)n2)cc1 | inconclusive: 22.4 µM [inhibitor, partial curve, poor fit] | 
CSc1nnc(-c2cc(Cl)ccc2NC(C)=O)c(=O)[nH]1 |  | inactive: 10.4%
Cc1cc(C)c(CNC(=O)c2cc(-c3cccnc3)cc3c2OCCN3C(C)C)c(=O)[nH]1 | inconclusive: 28.2 µM [inhibitor, partial curve, poor fit] | 
COc1ccccc1CCNC(=O)Cc1c(C)c2ccc(OC)c(C)c2oc1=O |  | inactive: -13.6%
CC(C)=NNC(=O)C(C)Sc1ccccc1 (configuration not stated) |  | inactive: 38.9%
Cc1ccc2oc3c(c(=O)c2c1)C(c1ccccc1F)N(CCCN(C)C)C3=O (configuration not stated) | inconclusive: 25.1 µM [inhibitor, partial curve, poor fit] | 
CN1CCOc2c(C(=O)NCc3cccnc3)cc(-c3ccc(N4CCOCC4)cc3)cc21 | inconclusive: 20 µM [inhibitor, partial curve, poor fit] | 
CCNc1ncc(C(=O)N(CCc2ccccc2)Cc2ccco2)cn1 | active: 28.2 µM | 
CCCSc1nnc2c(n1)OC(c1ccc(Br)s1)Nc1ccccc1-2 (configuration not stated) | inconclusive: 10 µM [inhibitor, partial curve, poor fit] | 
CCOC(=O)N1CCN(c2cc(C(=O)O)c3cc(NC(=O)C(C)C)ccc3n2)CC1 | inconclusive: 20 µM [inhibitor, partial curve, poor fit] | 
N#Cc1cccc(C(=O)N2CCCN(Cc3ccncc3)C(c3ccccc3)CC(=O)NCC2)c1 (configuration not stated) | inconclusive: 25.1 µM [inhibitor, single point] | 
CCN1C(C(=O)c2ccccc2)=C(OC(=O)c2ccco2)c2ccccc2S1(=O)=O |  | inactive: -9.91%
CCOC(=O)N1CCN(C(=O)c2c(C)nn(-c3cccc(C)c3)c2-n2cccc2)CC1 | inconclusive: 6.31 µM [inhibitor, partial curve, poor fit] | 
c1ccc(CN2CCC(NCc3c[nH]c4ccccc34)C2)cc1 (configuration not stated) |  | inactive: -33.6%
CCn1c(CN2CCOCC2)nnc1SCC(=O)c1cc(C)n(CC)c1C |  | inactive: 7.6%
O=C(Cn1c(=O)n(CCCS(=O)(=O)C2CCCCC2)c(=O)c2ccccc21)Nc1ccccc1C(F)(F)F | inconclusive: 31.6 µM [inhibitor, partial curve, poor fit] | 
O=C(O)c1cccc(C(=O)N2C[C@@H]3C[C@H](C2)c2ccc(NC(=O)c4cccs4)c(=O)n2C3)c1 | inconclusive: 31.6 µM [inhibitor, partial curve, poor fit] | 
CN(CC1CCOC1)C(=O)NCc1cccc(F)c1 (configuration not stated) |  | inactive: -3.71%

SMILES | Potency | activity change, negative = inhibition
O=C(c1cc(C2CC2)nc2onc(C3CCCNC3)c12)N1CCOCC1 (configuration not stated) | inconclusive: 79.4 µM [inhibitor, partial curve] | 
C[S+](=O)([O-])N1CCC2(C1)OC(=O)Nc1cnccc12 (configuration not stated) | inconclusive: 39.8 µM [inhibitor, partial curve, poor fit] | 
CCSc1nc(-c2ccc(C)cc2)nc2c1COC(C)(C)C2 |  | inactive: 9.8%
CC(=O)Nc1cccc(NC(=O)c2cccc3c(=O)c(C)c(-c4ccccc4)oc23)c1 |  | inactive: 3.24%
CNC(=O)[C@@H](Cc1ccccc1)N1CCC[C@H]1C(=O)NCc1cccnc1 |  | inactive: -19.3% [at 86.2 µM]
N#Cc1ccccc1S(=O)(=O)N1CCN(C(=O)c2ccc(Cn3nnc4ccccc43)cc2)CC1 |  | inactive: -3.13%
O=C(O)C[C@@H]1CCN(C(=O)Nc2ccc(C(F)(F)F)cc2)C[C@@H]1CCN1CCN(c2ccccn2)CC1 | inconclusive: 20 µM [inhibitor, single point] | 
CCCC(=O)N1CCC2(CC1)CC(N(Cc1ccc(F)cc1)C1CC1)CCO2 (configuration not stated) |  | inactive: -2.02%
COc1ccc(NC(=O)c2cc3c(N4CCSCC4)nc(C)cn3n2)cc1 | active: 14.1 µM | 
O=C(CCC1CCN(C(=O)c2ccccc2)CC1)N1CCC(Cc2ccccc2)CC1 |  | inactive: 7.86%
Cn1nc(C(=O)Nc2ccccc2C(N)=O)c2ccccc2c1=O |  | inactive: 2.09%
Cc1cc(Nc2ccccc2)nc(Nc2ccc(NC(=O)c3ccc(Cl)cc3)cc2)n1 | inconclusive: 39.8 µM [inhibitor, single point] | 
COc1ccc(Cl)cc1NC(=O)COc1ccccc1O |  | inactive: -2.42%
CN(C)c1nc2c(c(=O)[nH]1)CCN(Cc1cc(F)c(F)c(F)c1)CC2 |  | inactive: -18.1%
CSc1cccc(Nc2cc(C(=O)NCCc3ccc(Cl)cc3)c3ccccc3n2)c1 | inconclusive: 31.6 µM [inhibitor, partial curve, poor fit] | 
COc1cccc(CN2CCNC(=O)C2CC(=O)N(C)Cc2nc(C)cs2)c1OC (configuration not stated) | inconclusive: 35.5 µM [inhibitor, partial curve, poor fit] | 
Cc1ccc(CNC(=O)CCc2c(C)c3ccc(O)c(C)c3oc2=O)cc1 | inconclusive: 2.24 µM [inhibitor, full curve, poor fit] | 
CC(=O)c1cccc(NC(=O)Cn2c(Nc3cc(C)cc(C)c3)nc(C)cc2=O)c1 |  | inactive: -9.44%
CCN(CC)C(=O)COc1ccc(/C=N/NC(=O)c2cc(-c3ccccc3OC)nc3ccccc23)cc1OC | inconclusive: 39.8 µM [inhibitor, single point] | 
Cc1ccc(-c2onc3ccc(C(=O)/C=C/N(C)C)cc23)cc1 | inconclusive: 31.6 µM [inhibitor, partial curve, poor fit] | 
O=C(Nc1ccc(Br)cc1F)C1CCN(c2nc3ccccc3[nH]2)CC1 | inconclusive: 17.8 µM [inhibitor, partial curve, poor fit] | 
